Substitutions are numbered along the chain they refer to.
Tests used:
KB cells = assay: in vitro cytotoxicity (WST-8) on KB cells; format: cell-based
Description: 100 μl/well of each ADC was diluted in RPMI-1640 (Life Technologies) supplemented with heat-inactivated 10% FBS (Life Technologies) and 0.1 mg/ml gentamycin (Life Technologies) in a 96-well plate (Corning, flat bottom) at starting concentrations of 3.5×10^−9 M to 3.5×10^−8 M in triplicate and serially diluted 3-fold in media above at ambient temperature. KB cells (buccal epithelial tumor), grown in EMEM (ATCC) supplemented with heat-inactivated 10% FBS (Life Technologies) and 0.1 mg/ml gentamycin (Life Technologies), were washed once in PBS and removed with 0.05% trypsin-EDTA (Life Technologies). Other cells tested were NCI-H2110 (NSCLC) and T47D (breast epithelial) grown in RPMI-1640 (LifeTechnologies) supplemented with heat-inactivated 10% FBS (Life Technologies) and 0.1 mg/ml gentamycin (Life Technologies). T47D media also was supplemented with 0.2 IU/ml bovine insulin. All cells were resuspended in growth media (see above) to neutralize trypsin and counted on a Coulter counter. […] Total volume is 200 μl/well. After incubation, cell viability was analyzed by addition of 20 μl/well WST-8 (Dojindo) and allowed to develop for 2 hr. Absorbance was read on a plate reader at 450 and 620 nm. Absorbances at 620 nm were subtracted from absorbances at 450 nm. Background in wells containing media only was further subtracted from corrected absorbances and surviving fraction (SF) of untreated cells was calculated in Excel. An XY graph of ADC concentration (M) vs. SF was created using Graph Pad Prism.
In vitro potency of SeriMab-D8 conjugate (huMOV19-NTS#2-SeriMab-D8) was tested on KB cells (FIG. 26A), Ishikawa cells (human endometrial adenocarcinoma cells) (FIG. 26B), and HEC-1B cells (human endometrial adenocarcinoma cells) (FIG. 26C) using assay protocols similar to that described in Example 8.

[1] = test system: NCI-H2110 NSCLC xenografts; assay: antitumor activity against NCI-H2110 NSCLC xenografts in SCID mice; format: in vivo
Description: Female CB.17 SCID mice, 6 weeks old, were received from Charles River Laboratories. Mice were inoculated with 1×10^7 NCI-H2110 tumor cells suspended in 0.1 ml 50% matrigel/serum free medium by subcutaneous injection in the right flank. When tumor volumes reached approximately 100 mm^3 (day 7 post inoculation), animals were randomized based on tumor volume into 4 groups of 6 mice each. Mice received a single IV administration of vehicle control (0.2 ml/mouse) or huMOV19NTS#2-Linker1-Compound A ([6], scheme 1) conjugate at 10, 25 or 50 g/kg based on compound A concentration on day 1 (day 8 post inoculation).
Tumor size was measured twice to three times weekly in three dimensions using a caliper. […] A mouse was considered to have a partial regression (PR) when tumor volume was reduced by 50% or greater, complete tumor regression (CR) when no palpable tumor could be detected. Tumor volume was determined by StudyLog software.
Tumor growth inhibition (T/C Value) was determined using the following formula: T/C (%)=Median tumor volume of the treated/Median tumor volume of the control×100.
Tumor volume was determined simultaneously for treated (T) and the vehicle control (C) groups when tumor volume of the vehicle control reached predetermined size of 1000 mm^3. The daily median tumor volume of each treated group was determined, including tumor-free mice (0 mm^3). […]

[2] = in vivo stability of oxime linkage, affinity capture LC-MS of mouse plasma; settings: CD-1 mice, 10 mg/kg
Description: Commercially available xMag-Streptavidin Microparticles (Biochain, CA) were washed with washing buffer (50 mM Tris. HCl, 0.15 M NaCl, pH 8.0) twice and resuspended in the same buffer to their original volume. Biotinylated Fc-FRα (2.6 Biotin/Fc-FRα; ˜114 μg) was then added to the streptavidin particles (200 μL) and rotated at room temperature for 2 h. The beads were washed 3 times with washing buffer and re-suspended to their original volume in washing buffer with 0.4% Tween 20.
Plasma samples were collected from CD-1 mice dosed with 10 mg/kg huMOV19-NTS#2-aminooxy-acetyl-MayNMA conjugate at 2 min, 1 day, and 3 days, and was added to streptavidin-biotin-FRα-Fc particles (200 μL per sample) along with final 20% washing buffer and 0.2% Tween-20. After gentle shaking at room temperature for 2 h, the resin was washed 3 times with 1 mL washing buffer and eluted using 50 μL of 0.1 M citric acid/sodium citrate, pH 3.0, 50% ethylene glycol. […] HCl, pH 8.5, and then analyzed by SEC or SEC-LC/MS as described previously (Lazar, Wang et al. 2005).

CD123 = molecular target: T1, CD123 (Homo sapiens, UniProt P26951); assay: target (CD123) binding of conjugate
T1 sequence (P26951 19-378): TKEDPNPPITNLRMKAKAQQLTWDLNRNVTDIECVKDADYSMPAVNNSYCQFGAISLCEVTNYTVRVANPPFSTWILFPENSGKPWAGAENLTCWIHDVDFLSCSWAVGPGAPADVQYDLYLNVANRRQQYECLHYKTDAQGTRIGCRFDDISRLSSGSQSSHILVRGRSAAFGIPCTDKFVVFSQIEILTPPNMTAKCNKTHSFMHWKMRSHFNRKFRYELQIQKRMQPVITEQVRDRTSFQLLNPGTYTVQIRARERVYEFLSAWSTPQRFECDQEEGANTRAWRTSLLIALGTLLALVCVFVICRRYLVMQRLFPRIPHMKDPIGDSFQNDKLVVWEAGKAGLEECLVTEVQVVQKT

MOLM-1 cells = assay: in vitro cytotoxicity (WST-8) on MOLM-1 cells; format: cell-based; settings: MOLM-1 cells (CML)
Description: (§1) The ability of site-specific conjugates of huCD123-6 with the various IGN compounds (huCD123-6Rv1.1S2-SeriMab-D8) to kill cells that express CD123 on their cell surface was compared to that of the lysine-linked conjugates containing the matching antibody and the payload (huCD123-6Rv1.1-D2) using in vitro cytotoxicity assays. The cytotoxicity assays were carried out and analyzed as described below.
(§2) The cell lines were cultured in culture medium as recommended by the cell supplier (ATCC or DSMZ). The cells, 2,000 to 10,000 in 100 μL of the culture medium, were added to each well of flat bottom 96-well plates. To block Fc receptors on the cell surface, the culture medium was supplemented with 100 nM chKTI antibody (an antibody of the same isotype). Conjugates were diluted into the culture medium using 3-fold dilution series and 100 μL were added per well. […] Then the relative number of viable cells in each well was determined using the WST-8 based Cell Counting Kit-8 (Dojindo Molecular Technologies, Inc., Rockville, Md.). The apparent surviving fraction of cells in each well was calculated by first correcting for the medium background absorbance, and then dividing each value by the average of the values in the control wells (non-treated cells). […]

HNT-34 cells = assay: in vitro cytotoxicity (WST-8) on HNT-34 cells; format: cell-based; settings: HNT-34 cells (AML)
Description: as §1, §2

SHI-1 cells = assay: in vitro cytotoxicity (WST-8) on SHI-1 cells; format: cell-based; settings: SHI-1 cells (AML)
Description: as §1, §2

Ishikawa cells = assay: in vitro potency on Ishikawa cells; format: cell-based, human
Description: (§3) 100 μl/well of each ADC was diluted in RPMI-1640 (Life Technologies) supplemented with heat-inactivated 10% FBS (Life Technologies) and 0.1 mg/ml gentamycin (Life Technologies) in a 96-well plate (Corning, flat bottom) at starting concentrations of 3.5×10^−9 M to 3.5×10^−8 M in triplicate and serially diluted 3-fold in media above at ambient temperature. KB cells (buccal epithelial tumor), grown in EMEM (ATCC) supplemented with heat-inactivated 10% FBS (Life Technologies) and 0.1 mg/ml gentamycin (Life Technologies), were washed once in PBS and removed with 0.05% trypsin-EDTA (Life Technologies). Other cells tested were NCI-H2110 (NSCLC) and T47D (breast epithelial) grown in RPMI-1640 (LifeTechnologies) supplemented with heat-inactivated 10% FBS (Life Technologies) and 0.1 mg/ml gentamycin (Life Technologies). T47D media also was supplemented with 0.2 IU/ml bovine insulin. All cells were resuspended in growth media (see above) to neutralize trypsin and counted on a Coulter counter. […] After incubation, cell viability was analyzed by addition of 20 μl/well WST-8 (Dojindo) and allowed to develop for 2 hr. Absorbance was read on a plate reader at 450 and 620 nm. Absorbances at 620 nm were subtracted from absorbances at 450 nm. Background in wells containing media only was further subtracted from corrected absorbances and surviving fraction (SF) of untreated cells was calculated in Excel. […]

[3] = in vivo tolerability study in CD-1 mice; settings: female CD-1 mice, intravenous, 200 μg/kg (D8 drug dose)
Description: Female CD-1 mice (7 weeks of age) were obtained from Charles River Laboratories.
Mice were randomized into three groups by body weight. The body weights ranged from 25.6 to 24.1 grams with an average of 25 grams. […] Administration of all conjugates was carried out intravenously with a 1.0 ml syringe fitted with a 27 gauge, ½ inch needle. Individual body weights were measured at the indicated time points in FIG. 29 and the % change is graphed vs. time (days). Each line represents the body weight changes of one mouse. Animals that were moribund or experienced body weight loss >20% were sacrificed, as this is defined as an intolerable dose.

HEC-1B cells = assay: in vitro potency on HEC-1B cells; format: cell-based, human
Description: as §3

B1: huMOV19-NTS#2-Linker1-Compound A (conjugate)
heavy: SVQLVQSGAEVVKPGASVKISCKASGYTFTGYFMNWVKQSPGQSLEWIGRIHPYDGDTFYNQKFQGKATLTVDKSSNTAHMELLSLTSEDFAVYYCTRYDGSRAMDYWGQGTTVTVSS[human IgG1 constant region left out here]
light: DIVLTQSPLSLAVSLGQPAIISCKASQSVSFAGTSLMHWYHQKPGQQPRLLIYRASNLEAGVPDRFSGSGSKTDFTLTISPVEAEDAATYYCQQSREYPYTFGGGTKLEIKRTVAAPSVFIFPPSDEQLKSGTASVVCLLNNFYPREAKVQWKVDNALQSGNSQESVTEQDSKDSTYSLSSTLTLSKADYEKHKVYACEVTHQGLSSPVTKSFNRGEC
antigen-independent potency of the two conjugates (KB cells; KB cells, in the presence of 1 μM unconjugated huMOV19): nearly identical | anti-tumor activity ([1]; single IV dose 25 μg/kg based on compound A): highly active | anti-tumor activity ([1]; single IV dose 50 μg/kg based on compound A): highly active

B2: SeriMab-May: huMOV19-NTS#2 linked through the engineered N-terminal Ser (oxime) to maytansinoid MayNMA, two per antibody (conjugate)
heavy: B1 heavy
light: B1 light
potency compared with lysine-conjugate Ab-SMCC-DM1 (KB cells; KB cervical cancer cell line): same potency | half-life of maytansine elimination [2]: approximately 17 days | stability of oxime linkage in mouse circulation ([2]; plasma at 2 min, 1 day, 3 days): stable over 3 days

B3: huCD123-6Rv1.1S2-SeriMab-D8 (conjugate)
heavy: SFQLVQSGAEVVKPGASVKMSCKASGYTFTSSIMHWMKQKPGQGLEWIGYIKPYNDGTKYNQKFQGKATLTSDKSSSTANMELNSLTSEDSAVYYCAREGGNDYYDTMDYWGQGTSVTVSS[human IgG1 constant region left out here]
light: DIQMTQSPSSMSASVGERVTITCRASQDINSYLSWFQQKPGKSPKTLIYRVNRLVDGVPSRFSGSGSGQDYSLTISSLEPEDMGIYYCLQYDAFPYTFGQGTKLEIKRTVAAPSVFIFPPSDEQLKSGTASVVCLLNNFYPREAKVQWKVDNALQSGNSQESVTEQDSKDSTYSLSSTLTLSKADYEKHKVYACEVTHQGLSSPVTKSFNRGEC
target (CD123) binding (CD123): maintained target (CD123) binding

B4: huCD123-6Rv1.1-D2 (conjugate)
heavy: B3 heavy with S1Q
light: B3 light
IC50 (MOLM-1 cells): ~30 pM | IC50 (HNT-34 cells): ~2 pM | IC50 (SHI-1 cells): ~10 pM

B5: huMOV19-SeriMab-D8 (conjugate)
heavy: B1 heavy
light: B1 light
antigen-specific potency compared with lysine conjugate huMOV19-D2 (Ishikawa cells): comparable antigen-specific potency | antigen-specific potency compared with lysine conjugate huMOV19-D2 (KB cells; KB cells): comparable antigen-specific potency | tolerability, body weight loss over 2 weeks [3]: well tolerated | antigen-specific potency compared with lysine conjugate huMOV19-D2 (HEC-1B cells): comparable antigen-specific potency

From patent publication US10988531B2, “Conjugates comprising cell-binding agents and cytotoxic agents” (ImmunoGen, Inc., priority 2014, dated 2021)
